# From PubChem BioAssay AID1345082 (National Center for Advancing Translational Sciences (NCATS), 2018)
# Among all 94,000 compounds or so, about 4,000 (4.3%) were called active. This list was built around the results that the source calls inconclusive (neither active nor inactive); the mix of calls is not that of the screen. Calls come from the whole dose curve; as a rule, active = well fitted inhibition curve with a large enough effect; inconclusive = small, poorly fitted or top-dose-only effect; inactive = no such curve, though single readings can be large or run the other way. Potencies beside an inconclusive call are fits to weak or partial responses and may not hold up.
# Test: Cytotoxic Profiling in NIH 3T3 Cell Line of Diverse Libraries Using Quantitative High-Throughput Screening; note: nearly all actives have a fitted effect of over 55% in size
# Settings: NIH 3T3 viability, CellTiter-Glo ATP luminescence, 48-72 h; activity change, negative = cytotoxicity: at 96.7 µM (top of the series); series mostly up to 96.7 µM
# In short: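 First NIH 3T3 cells are plated at 400 cells/well; next compound is pinned in; then plates incubate 48 or 72 hr at 37 °C; finally CellTiter-Glo is added and luminescence read after 10 min.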
# % is set by controls: 0 for no effect and ±100 for the full control effect; potency is the fitted concentration of half-maximal effect; tags give direction and shape of the fitted curve.
SMILES,Potency,"activity change, negative = cytotoxicity",outcome
COc1ccc(S(=O)(=O)N[C@H]2C[C@@H](c3nc(-c4ccc(C)cc4)no3)N(C)C2)cc1,"inconclusive: 44.7 µM [inhibitor, partial curve, poor fit]",,
CC(C)(C)c1cc(CC2(NCc3ccccc3O)COC2)no1,"inconclusive: 126 µM [inhibitor, partial curve, poor fit]",,
COc1ccc(CN2CCc3nc(N4CCN(C)CC4)[nH]c(=O)c3CC2)cc1,,inactive: -1.02%,
COC1CCN(C(=O)Cc2c[nH]c3ncc(-c4ccccc4)cc23)CC1,"inconclusive: 100 µM [inhibitor, single point]",,
O=C(c1ccc2[nH]ccc2c1)N1CCC(N2C(=O)C3(CCCCC3)C2c2ccncc2)CC1 (centres undefined),,inactive: -15.4%,
Cc1ncoc1C(=O)N1CC[C@H](CO)[C@H](N(C)C)C1,,inactive: -0.138%,
O=C(c1cccc2[nH]ccc12)N1CC(Oc2cccc(-c3nc(-c4ccccc4)no3)c2)C1,"inconclusive: 31.6 µM [inhibitor, full curve]",,
COCC(=O)NC1CCN(C(=O)c2ccc(-c3ccc(OC)nn3)cc2)C1 (centres undefined),,inactive: 0.48%,
Cc1cnc(CC2CCN(C(=O)COc3ccc(F)cc3)CC2)n1Cc1ccccc1,"inconclusive: 50.1 µM [inhibitor, partial curve, poor fit]",,
Cc1ccccc1C(=O)N1CCC(Cc2nc(-c3ccccc3)no2)CC1,"inconclusive: 44.7 µM [inhibitor, partial curve, poor fit]",,
COc1ccc(NC(=O)[C@@H]2C[C@@H](c3cccc(C(F)(F)F)c3)N(Cc3cnn(C)c3)C2)cn1,"inconclusive: 70.8 µM [inhibitor, single point]",,
Cc1cccc(S(=O)(=O)N2CC(C(=O)NC3CCCCC3)C3(CCOCC3)C2)c1 (centres undefined),"inconclusive: 79.4 µM [inhibitor, single point]",,
CC1CCC(NC(=O)c2cc3n(n2)CC(c2ccc4c(c2)OCO4)OC3)CC1 (centres undefined),"inconclusive: 14.1 µM [inhibitor, full curve, poor fit]",,
COCC(=O)N[C@H]1C[C@@H](CO)N(Cc2ccc(C)o2)C1,,,inactive
O=C(c1ccc(F)cc1)N1CCN(c2nccc(Nc3ccccc3F)n2)CC1,active: 31.6 µM,,
O=C(Cc1cccc(Cl)c1)N1CCn2c(nn(-c3ccc(F)cc3)c2=O)C1,"inconclusive: 39.8 µM [inhibitor, partial curve, poor fit]",,
Cc1ccsc1CN1CCOc2cc([S+](=O)([O-])Nc3ccccc3)ccc2C1,active: 44.7 µM,,
CCS(=O)(=O)N(C1CC1)C1CCOC2(CCN(C(=O)c3ccc(OC)cc3)CC2)C1 (centres undefined),,,inactive
CC1(C(=O)NCCN2CCOCC2)CCc2cnc(NCc3ccccc3)nc21 (centres undefined),"inconclusive: 89.1 µM [inhibitor, partial curve, poor fit]",,
Cc1cnc(NC(=O)c2ccc3c(c2)OCCN(c2ccccc2)C3)s1,"inconclusive: 20 µM [inhibitor, full curve, poor fit]",,
CCNC(=O)c1n[nH]c2c1CN(C(=O)c1ccccc1F)CC2,,inactive: -4.66%,
COC(=O)c1ccc2c(c1)nc1n2[C@@H](CNCc2ccc(F)c(F)c2)COC1,"inconclusive: 50.1 µM [inhibitor, partial curve, poor fit]",,

SMILES,Potency,"activity change, negative = cytotoxicity",outcome
CC1Oc2ccc(NC(=O)c3c(F)cccc3F)cc2CN(CCc2ccc(F)cc2)C1=O (centres undefined),"inconclusive: 44.7 µM [inhibitor, partial curve, poor fit]",,
COc1ccccc1CN1CCn2c(nn(-c3ccc([N+](=O)[O-])cc3)c2=O)C1,"inconclusive: 39.8 µM [inhibitor, partial curve, poor fit]",,
O=C(NCc1c[nH]c2ncccc12)c1ccc(C(F)(F)F)cc1,"inconclusive: 89.1 µM [inhibitor, partial curve, poor fit]",,
CC(C)CC1=NS(=O)(=O)c2cc(NC(=O)C3CCC3)ccc2N1c1ccccc1,"inconclusive: 56.2 µM [inhibitor, partial curve, poor fit]",,
CN1CCC(C(=O)N2Cc3ccccc3OC3(CCN(C(=O)N(C)C)CC3)C2)CC1,inactive,,
c1ccc(CN(Cc2nc(-c3ccccn3)no2)CC2CC2)cc1,,inactive: 1.2%,
Cc1noc2c(N3CCN(Cc4ccccc4)CC3)cc(-c3ccsc3)nc12,"inconclusive: 31.6 µM [inhibitor, full curve, poor fit]",,
CC(=O)Nc1ccc(C2(C(=O)N(C)Cc3ccccc3)CCCCC2)cc1,"inconclusive: 56.2 µM [inhibitor, partial curve, poor fit]",,
O=C(Cc1cccs1)N1CC(Oc2ccccc2-c2nc(C3CC3)no2)C1,,inactive: -22.8%,
O=C(Nc1cccc(F)c1)C1CCN(C(=O)c2ncn3c2COC(c2ccccc2)C3)CC1 (centres undefined),,inactive: -0.723%,
O=C1NCc2ccccc2CC12CCN(Cc1ccncc1Cl)CC2,,inactive: -1.36%,
COc1ccc(-c2noc([C@@H]3Cc4nc[nH]c4CN3C(=O)NC3CCCCC3)n2)cc1,"inconclusive: 44.7 µM [inhibitor, partial curve, poor fit]",,
CC1(COc2ccccc2)COc2ccc(C(=O)Nc3ccc4[nH]ccc4c3)cc2N1 (centres undefined),active: 35.5 µM,,
O=C(N[C@H]1CCN2C(=O)c3cc(-c4ccc(Cl)cc4)ccc3NC(=O)[C@H]12)c1cccs1,"inconclusive: 10 µM [inhibitor, full curve, poor fit]",,
CC1=C[C@@H](CNC2CCOCC2)[C@H](C(C)C)C[C@H]1Cc1nc2ccccc2n1C,"inconclusive: 89.1 µM [inhibitor, partial curve, poor fit]",,
CC1=C[C@@H](CN2CCC(CO)CC2)[C@H](C(C)C)C[C@H]1Cc1nnc(-c2cccnc2)o1,,inactive: -29.5% [at 174 µM],
O=C(NCC1CCCCC1)c1nc2sccn2c1-c1ccc(F)cc1,"inconclusive: 20 µM [inhibitor, full curve, poor fit]",,
Cc1ccc(-c2ccccc2CN2CCN(C(=O)NC(C)C)CC2)cc1Cl,"inconclusive: 50.1 µM [inhibitor, partial curve, poor fit]",,
CCC(C)Oc1ccccc1CN1CCC(CO)(CN2CCCC2)CC1 (centres undefined),"inconclusive: 44.7 µM [inhibitor, partial curve, poor fit]",,
CC(C)c1noc(-c2cn(C3CCN(C(=O)c4ccc(C(C)(C)C)cc4)C3)nn2)n1 (centres undefined),"inconclusive: 39.8 µM [inhibitor, partial curve, poor fit]",,
Cn1c(CN2CCOCC2)nnc1C1CCCN(c2ccc(C#N)cn2)C1 (centres undefined),,inactive: 1.96%,
COCCCNC(=O)c1csc(N2CCN(c3ccccc3)CC2)n1,,inactive: -7.04%,

SMILES,Potency,"activity change, negative = cytotoxicity",outcome
CN(C)c1ncc2c(n1)C(C)(C(=O)Nc1ccccc1)CCC2 (centres undefined),"inconclusive: 22.4 µM [inhibitor, full curve, poor fit]",,
Cn1ncc2c(C(=O)NCC#N)cc(-c3cccc(F)c3)nc21,"inconclusive: 63.1 µM [inhibitor, partial curve, poor fit]",,
O=C(O)C[C@@H]1CCN(C(=O)NC2CCCCC2)C[C@@H]1CCN1CCC(C(=O)O)CC1,,inactive: -2.81% [at 174 µM],
CN(CCc1ccccc1)C1(C(=O)N2CCCC(C#N)C2)Cc2ccccc2C1 (centres undefined),"inconclusive: 56.2 µM [inhibitor, partial curve, poor fit]",,
CC(C)N1C[C@H](O)C[C@H]1c1nnc2n1CCN(C(=O)Cc1ccccc1)CC2,,inactive: -13.7%,
Cc1ccc(C2Cn3nnc(C(=O)N4CCC(C(=O)NCc5ccc(F)cc5F)CC4)c3CO2)cc1 (centres undefined),,,inactive
O=C(NCCc1ccccc1)c1cnc2n[nH]c(-c3ccccc3)c2n1,"inconclusive: 100 µM [inhibitor, partial curve, poor fit]",,
O=C1NCCCCCCN(C(=O)c2cccs2)[C@H]2C[C@H](c3nc(-c4cccnc4)no3)C[C@@H]12,"inconclusive: 44.7 µM [inhibitor, partial curve, poor fit]",,
COc1ccc(F)cc1-c1ccc(CN2CCC(NC(=O)C3CCCCC3)C2)cc1 (centres undefined),active: 31.6 µM,,
COCC(=O)N(C1CCOCC1)C1CCN(C(=O)c2ccc(OC)nc2)CC1,"inconclusive: 31.6 µM [inhibitor, full curve]",,
COc1ccc2nc(CO[C@H]3CN(Cc4ccc(S(C)(=O)=O)cc4)C[C@H]3F)[nH]c2c1,"inconclusive: 112 µM [inhibitor, partial curve, poor fit]",,
Cc1ccc(CN2C[C@@H](CO)[C@H](c3nc(C)no3)C2)nc1,,inactive: -11.2%,
O=C(c1cccs1)N1CCC2(CC1)NC(=O)N(Cc1ccccc1)C2=O,"inconclusive: 7.94 µM [inhibitor, partial curve, poor fit]",,
CN1CC(=O)N(C2CCC2)Cc2c1ncnc2N1CCC(N2CCCCC2)CC1,"inconclusive: 35.5 µM [inhibitor, full curve, poor fit]",,
CCc1nc2c(c(-c3ccc(OC)cc3)n1)CCN(C(=O)c1ccccn1)CC2,"inconclusive: 50.1 µM [inhibitor, partial curve, poor fit]",,
CC(Cc1cccnc1)NC(=O)c1cn(Cc2ccccc2C(F)(F)F)nn1 (centres undefined),,inactive: -1.76%,
CN1CCN(c2ccc(-c3cc4c(ccn4C)c(C(=O)NCc4cnccn4)n3)cc2)CC1,"inconclusive: 17.8 µM [inhibitor, full curve, poor fit]",,
COCC(=O)NC1CCN(C(=O)c2ccc(-c3cccs3)cc2)CC1,"inconclusive: 50.1 µM [inhibitor, partial curve, poor fit]",,
O=C(NCc1ccc(Cl)cc1)c1ccc2nnc(C3CCCC3)n2c1,active: 31.6 µM,,
COc1ccc(Nc2ccnc(N3CCCC(C(=O)N4CCN(C)CC4)C3)n2)cc1 (centres undefined),,inactive: -26.4%,
